# Laboratory results as given in PubChem BioAssay AID588453 (National Center for Advancing Translational Sciences (NCATS), 2011).
# Out of some 390,000 compounds screened, about 4,000 (1%) were called active. This list was built around the results that the source calls inconclusive (neither active nor inactive); the mix of calls is not that of the screen. The call rests on the fitted dose curve; in most records, active means well fitted inhibition curve with a large enough effect; inconclusive means small, poorly fitted or top-dose-only effect; inactive means no such curve, though single readings can be large or run the other way. Where the call is inconclusive, the potency comes from a doubtful curve fit.
# Target: Thioredoxin reductase 1, cytoplasmic (Rattus norvegicus) (UniProt O89049)
# Assay: qHTS Assay for Inhibitors of Mammalian Selenoprotein Thioredoxin Reductase 1 (TrxR1): qHTS; further: nearly all actives have a fitted effect of over 65% in size
# Details: recombinant rTrxR1, NADPH fluorescence consumption, selenite substrate; series mostly up to 114 µM
# Summary of the method: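 Rat TrxR1 (90 nM in the dispensed reagent) was pre-reduced with 400 uM NADPH for 5 min at room temperature, then incubated with compound for 15 min. After 400 uM selenite was added, NADPH fluorescence (Ex 340/Em 450 nm) was followed for 8 min.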
# Potency means the concentration at half of the fitted maximal effect; tags describe the fitted curve by direction and shape.
# UniProt O89049, sequence (O89049 whole entry, looked up): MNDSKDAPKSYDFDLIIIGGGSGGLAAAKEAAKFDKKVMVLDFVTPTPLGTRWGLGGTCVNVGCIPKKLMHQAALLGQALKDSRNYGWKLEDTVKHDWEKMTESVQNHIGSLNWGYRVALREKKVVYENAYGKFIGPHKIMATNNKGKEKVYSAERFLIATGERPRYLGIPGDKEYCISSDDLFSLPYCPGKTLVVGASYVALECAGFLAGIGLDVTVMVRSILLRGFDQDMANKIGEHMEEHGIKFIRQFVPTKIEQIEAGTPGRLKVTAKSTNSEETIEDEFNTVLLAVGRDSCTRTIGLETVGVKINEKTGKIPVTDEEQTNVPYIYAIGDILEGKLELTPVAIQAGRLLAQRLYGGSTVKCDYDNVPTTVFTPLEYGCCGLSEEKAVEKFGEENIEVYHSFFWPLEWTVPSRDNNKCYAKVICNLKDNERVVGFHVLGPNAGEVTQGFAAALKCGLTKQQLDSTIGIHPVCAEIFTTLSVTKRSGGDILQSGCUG
row,SMILES,Potency
1,Cc1ccc(/C=[N+](\[O-])c2ccc(N(C)C)cc2)c2nsnc12,active: 22.4 µM
2,O=C1C2CC=C(Cl)CC2C(=O)N1CCCCCCN1C(=O)C2CC=C(Cl)CC2C1=O (stereo not given),"inconclusive: 63.1 µM [inhibitor, single point]"
3,C=C1CCN(C(C(=O)O)C(C)C)S(=O)(=O)c2ccccc21 (stereo not given),"inconclusive: 39.8 µM [inhibitor, single point]"
4,COc1ccc(C(=O)Nc2nnc(SCC(=O)NCc3ccco3)s2)c(OC)c1,inactive
5,Cc1ccccc1C(=O)NC(=S)NCc1ccccc1,"inconclusive: 50.1 µM [inhibitor, partial curve]"
6,CC(=NNC(=S)N1CCCCC1)c1cccc(C)n1,"inconclusive: 0.501 µM [inhibitor, full curve, poor fit]"
7,COc1ccc2nc3oc(C(=O)N4CCCCC4)cc3cc2c1,inactive
8,Cc1ccc(C2c3c(oc4cc(C)c(C)cc4c3=O)C(=O)N2CCCN2CCOCC2)cc1 (stereo not given),"inconclusive: 15.8 µM [inhibitor, partial curve, poor fit]"
9,Nc1nc2c(ccc3ccccc32)s1,"inconclusive: 89.1 µM [inhibitor, partial curve, poor fit]"
10,Cc1ccc(CNC(=O)c2sc3nc4n(c(=O)c3c2C)CCCC4)cc1,"inconclusive: 56.2 µM [inhibitor, single point]"
11,CCOC(=O)C1CCN(Cc2c(O)ccc3ccccc23)CC1,"inconclusive: 3.16 µM [inhibitor, full curve]"
12,CS(=O)(=O)N(CC(=O)NCc1ccco1)Cc1ccc(Cl)cc1,"inconclusive: 56.2 µM [inhibitor, partial curve]"
13,COCCNC(=O)c1ccc(C2SCC(=O)N2Cc2ccco2)cc1 (stereo not given),"inconclusive: 70.8 µM [inhibitor, partial curve, poor fit]"
14,COc1ccc(C(=O)NC(Oc2ccccc2)C(Cl)(Cl)Cl)cc1 (stereo not given),active: 11.2 µM
15,Cc1cnc(NC(=O)C(C)N2CCN(C)CC2)s1 (stereo not given),inactive
16,O=C(NCc1ccco1)c1cc(-c2ccccc2)nn1CC1CC(c2cccnc2)=NO1 (stereo not given),"inconclusive: 56.2 µM [inhibitor, partial curve, poor fit]"
17,CCOc1cc(/C=N/Nc2nc(N3CCCC3)nc(N3CCCC3)n2)ccc1O,"inconclusive: 3.16 µM [inhibitor, partial curve, poor fit]"
18,COc1ccc(-c2ccc(CCC(=O)O)o2)cc1,active: 17.8 µM
19,CCOc1ccc(C2C(C(=O)Nc3ccc(OC)cc3)=C(C)Nc3nc(SCc4ccc(Cl)cc4)nn32)cc1 (stereo not given),inactive
20,COC(=O)CCC(=O)OC1(C)C(=O)C=C2C=C(C3CC3)N(C3CCCC3)C=C2C1=O (stereo not given),inactive
21,CC(C)(C)c1ccc(S(=O)(=O)N2CCN(c3nc(-c4ccccc4)nc4ccccc34)CC2)cc1,inactive
22,CCOC(=O)c1c(NC(=O)CN2CCN(S(=O)(=O)c3cc(Cl)ccc3Cl)CC2)sc(C(=O)N(C)C)c1C,"inconclusive: 89.1 µM [inhibitor, partial curve, poor fit]"
23,C=C(C)C(=O)Nc1cccc(C2=NOC3(C2)C[C@@H](C(N)=O)N(C(=O)C(=C)C)C3)c1 (stereo not given in full),inactive

row,SMILES,Potency
1,O=C(CSc1ccc(-c2cccnc2)nn1)c1ccc([N+](=O)[O-])cc1,"inconclusive: 89.1 µM [inhibitor, single point]"
2,CCC(C)C(=O)Nc1c2c(nc3c1CCC3)CCCC2 (stereo not given),inactive
3,COc1ccc(N=NC2C(=O)N(c3ccccc3)N=C2C)cc1 (stereo not given),inactive
4,O=C(CC1C(=O)NCCN1Cc1ccc(Cl)c(F)c1)NC1CCCCC1 (stereo not given),"inconclusive: 39.8 µM [inhibitor, partial curve, poor fit]"
5,CNCc1ccccc1Sc1ccc(O)c(O)c1,active: 31.6 µM
6,Cc1ccc(S(=O)(=O)N(C(=O)c2ccncc2)c2ccc3oc4c(c3c2)CCCC4)cc1[N+](=O)[O-],inactive
7,COc1cccc(/C=C(\C#N)c2nc3ccccc3[nH]2)c1OCC(=O)O,"inconclusive: 8.91 µM [inhibitor, partial curve]"
8,Cc1ccccc1C(OCCN(C)C)c1ccccc1 (stereo not given),"inconclusive: 1.34 µM [inhibitor, full curve, poor fit]"
9,O=C(NC(=S)Nc1ccc(S(=O)(=O)N2CCCC2)cc1)c1cccs1,active: 20 µM
10,CCc1c(N)nc(N)nc1Nc1ccccc1C,inactive
11,Cc1ccccc1OCCn1cnc2c(N)ncnc21,"inconclusive: 39.8 µM [inhibitor, single point]"
12,CC[C@@]1(c2ccccc2OC)C(=O)N(C(=O)OC)N1C(=O)OC,"inconclusive: 11.2 µM [inhibitor, partial curve, poor fit]"
13,C=C1C(=O)OC2C=C(CO)CCC=C(CO)CC(OC(=O)C(C)C)C12 (stereo not given),"inconclusive: 2.82 µM [inhibitor, partial curve, poor fit]"
14,COc1ccc(NC(=O)CN(C)C(=O)/C=C/c2ccc(OCc3ccccc3)cc2)cc1,inactive
15,CCOC(=O)C(NC(C)=O)(OCc1ccccc1)C(F)(F)F (stereo not given),"inconclusive: 89.1 µM [inhibitor, partial curve, poor fit]"
16,O=C(N/N=C/C(Br)=C\c1ccccc1)c1n[nH]c2c1CCC2,"inconclusive: 17.8 µM [inhibitor, full curve]"
17,Cc1cc(-c2ccccc2)[nH]c(=O)c1S(=O)(=O)c1ccccc1,"inconclusive: 79.4 µM [inhibitor, partial curve, poor fit]"
18,COc1cc([N+](=O)[O-])ccc1-c1ccc(C(=O)Nc2ccc(NC(C)=O)cc2)o1,"inconclusive: 56.2 µM [inhibitor, partial curve]"
19,Cc1ccc(N(CC(=O)N/N=C/c2cc(C)n(-c3ccccc3C)c2C)S(C)(=O)=O)cc1,"inconclusive: 79.4 µM [inhibitor, partial curve, poor fit]"
20,CSc1ccc(CN2CCCN(C)CC2)cc1,inactive
21,Cc1ccc(/C=C/C(=O)N2CC(C)CC(C)C2)o1 (stereo not given),"inconclusive: 0.398 µM [inhibitor, full curve, poor fit]"
22,O=c1[nH]c(=O)c2cc([N+](=O)[O-])cc([N+](=O)[O-])c2[nH]1,"inconclusive: 22.4 µM [inhibitor, single point]"
